# In all, about 75,000 compounds went through this assay and about 15 (0.02%) were called active. Inconclusive means that the source gave no clear call. Such entries were picked first, then a sample of the others. The call rests on the fitted dose curve; in most records, active means well fitted inhibition curve with a large enough effect in the main read-out, with a control signal flat (not every such curve was filed as active); inconclusive means small, poorly fitted or top-dose-only effect, or a change in a side signal; inactive means flat fitted curve, though single readings scatter. Potencies beside an inconclusive call are fits to weak or partial responses and may not hold up. “Side channel” marks fits to a control or component signal instead of the main read-out.
# Molecular target: Caspase-7 (Homo sapiens) (UniProt P55210)
# Sequence of UniProt P55210 (P55210 whole entry, looked up): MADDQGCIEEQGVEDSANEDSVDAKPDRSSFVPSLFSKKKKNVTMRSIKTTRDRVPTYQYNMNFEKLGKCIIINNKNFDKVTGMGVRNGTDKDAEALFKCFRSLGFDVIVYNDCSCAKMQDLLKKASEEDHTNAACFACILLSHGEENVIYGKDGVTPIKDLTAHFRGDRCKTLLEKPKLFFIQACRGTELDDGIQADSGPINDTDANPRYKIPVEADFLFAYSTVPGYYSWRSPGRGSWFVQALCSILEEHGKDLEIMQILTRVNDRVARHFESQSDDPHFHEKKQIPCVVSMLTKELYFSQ
# Assay: qHTS Assay for Allosteric/Competitive Inhibitors of Caspase-7; on activity change, negative = inhibition: % of control where 0% means no effect
# Details: recombinant caspase-7, Ac-DEVD-AFC fluorescence rate; activity change, negative = inhibition: at 57.5 µM (top of the series) unless noted
# Potency means the concentration at half of the fitted maximal effect; tags describe the fitted curve by direction and shape or compound fluorescence and quenching.
Structure (SMILES),Potency,"activity change, negative = inhibition"
C[C@@H]1CC2(OC(O)[C@]3(C)O[C@H]23)O[C@H]2C[C@@]3(C)[C@@H]4CC[C@H]5C(C)(C)C(O[C@@H]6OC[C@@H](O)[C@H](O)[C@H]6O)CC[C@@]56C[C@@]46CC[C@]3(C)[C@@H]12 (stereo partly drawn),inactive,–
COc1ccc(Oc2ncc3nc(-c4ccc(OC)cc4)c(=O)n(Cc4cccs4)c3n2)cc1,"inconclusive: 2.51 µM [fluorescent, full curve]",–
Cc1sc2ncnc(N3CCCCC3C)c2c1C (stereo not drawn),inactive,–
CCN(CC)S(=O)(=O)c1ccc2c3c(cccc13)C(=O)N2,"inconclusive: 25.1 µM [fluorescent, side channel, partial curve]",–
COc1ccc(S(=O)(=O)N(C)CC(=O)N2CCCCCC2)cc1OC,inactive,–
COc1ccc(-c2cc([C@H](O)[C@@H]3CCCCN3)c3ccccc3n2)cc1,–,inactive: -2.97% [at 11.5 µM]
CCCn1c(=O)c2ccccc2n2c(SCc3c(C(=O)OCC)oc4ccccc34)nnc12,inactive,–
O=C(COC(=O)c1ccco1)Nc1ccc2c(c1)OCCO2,inactive,–
Cc1ccc(S(=O)(=O)/C=C\C#N)cc1,inactive,–
COc1ccccc1-c1nc2s/c(=C\c3cccs3)c(=O)n2n1,inactive,–
Nc1c(S(=O)(=O)O)cc(Nc2ccc(Nc3nc(Cl)nc(Nc4ccc(S(=O)(=O)O)cc4)n3)c(S(=O)(=O)O)c2)c2c1C(=O)c1ccccc1C2=O,inactive,–
COc1ccc(Cn2c(=O)[nH]c3cc(C(=O)N4CCN(Cc5ccccc5)CC4)ccc3c2=O)cc1,"inconclusive: 25.1 µM [inhibitor, partial curve]",–
CCCCn1c(NCc2ccccn2)nc2ccccc21,inactive,–
c1ccc(CSc2nnc(-c3ccco3)c(-c3ccco3)n2)cc1,"inconclusive: 15.8 µM [inhibitor, partial curve]",–
CCNc1ncc2nc(-c3cccs3)c(=O)n(Cc3cccc(OC)c3)c2n1,"inconclusive: 1.58 µM [fluorescent, side channel, full curve]",–
Cn1c(-c2ccc(C(=O)c3ccccc3)s2)nc2ccccc21,"inconclusive: 15.8 µM [fluorescent, partial curve]",–
O=C(Cn1nnc(-c2ccccc2F)n1)Nc1ccc(S(=O)(=O)NC2CCCC2)cc1,inactive,–
O=C(c1cc2nc(-c3ccco3)cc(C(F)(F)F)n2n1)N1CCc2ccccc2C1,"inconclusive: 25.1 µM [fluorescent, partial curve]",–
COCCCn1c(=NC(=O)c2ccncc2)c(C#N)cc2c(=O)n3cccc(C)c3nc21,"inconclusive: 2 µM [fluorescent, side channel, partial curve]",–
CSc1nc(N)c2ncn([C@H]3O[C@H](COP(=O)(O)OP(=O)(O)O)[C@@H](O)[C@@H]3O)c2n1,inactive,–
CCNc1ncc2nc(-c3ccc(OC)cc3)c(=O)n(C)c2n1,"inconclusive: 2.51 µM [fluorescent, side channel, full curve]",–
COCCn1c(=S)[nH]c2ccc(N(C)C)cc2c1=O,"inconclusive: 15.8 µM [fluorescent, partial curve]",–

Structure (SMILES),Potency,"activity change, negative = inhibition"
COc1cc(C(=O)N2CCCN(c3nc4cc(C)ccc4cc3C#N)CC2)cc(OC)c1OC,"inconclusive: 25.1 µM [fluorescent, partial curve]",–
Cc1ccc2ccccc2c1CSc1nc(N)nc2c1ncn2CC(C)C,–,inactive: -1.93% [at 11.5 µM]
CC(C)Cn1c(N)c(S(=O)(=O)c2cccs2)c2nc3ccccc3nc21,"inconclusive: 25.1 µM [fluorescent, partial curve]",–
COc1nc(N)nc2c1ncn2[C@@H]1C[C@H](O)[C@@H](CO)O1,–,inactive: 0.467% [at 11.5 µM]
COc1cccc(Cn2c(=O)c(-c3cc(F)cc(F)c3)nc3cnc(N4CCOCC4)nc32)c1,"inconclusive: 0.631 µM [inhibitor, full curve]",–
CCNc1ncc2nc(-c3cccs3)c(=O)n(C[C@H]3CCCO3)c2n1,"inconclusive: 0.631 µM [fluorescent, side channel, full curve]",–
CON(C)c1nc(OCCNC(=O)OCc2ccc(Cl)cc2Cl)nc(N(C)C)n1,inactive,–
Cc1nc2[nH]c(=O)c3c(n2n1)NC1=C(C(=O)CC(C)(C)C1)C3c1ccccc1 (stereo not drawn),"inconclusive: 31.6 µM [inhibitor, single point]",–
CS(=O)(=O)c1ccc2nc(NC(=O)c3cccs3)sc2c1,inactive,–
Cn1c(=N)c(S(=O)(=O)c2ccc(Cl)cc2)cc2c(=O)n3ccccc3nc21,"inconclusive: 3.98 µM [fluorescent, side channel, partial curve]",–
COc1cccc(-c2ccc3ncnc(NC4CC4)c3c2)c1,inactive,–
COC(=O)[C@H]1[C@H]2C[C@@H]3c4[nH]c5cc(OC)ccc5c4CCN3C[C@H]2C[C@@H](OC(=O)c2cc(OC)c(OC)c(OC)c2)[C@@H]1OC,"inconclusive: 7.94 µM [inhibitor, partial curve]",–
C=CC[C@@H]1C=C[C@@H](O/N=C\[C@@H](OC)[C@H](C)/C=C\CC(=O)OC)[C@@H](CO)O1,–,inactive: 1.92% [at 11.5 µM]
Cc1ccc2nc3c(cc(C#N)c(=N)n3CC3CCCO3)c(=O)n2c1 (stereo not drawn),"inconclusive: 0.631 µM [fluorescent, side channel, full curve]",–
N[C@H](C(=O)O)[C@H](O)C(=O)O,inactive,–
O=C1CCNc2cc3ccccc3cc21,"inconclusive: 25.1 µM [fluorescent, partial curve]",–
COc1ccc(Cc2nc(-c3ccc(Br)o3)no2)cc1OC,inactive,–
COCCN(CCOC)c1ncc(Cl)c(C(=O)c2c(C)cc3ccccn23)n1,inactive,–
Oc1ccc(-c2nc3cnccn3c2Nc2ccc3c(c2)OCCO3)cc1,inactive,–
O=C(NCC1CCCO1)c1coc2nc3ccccc3nc12 (stereo not drawn),"inconclusive: 25.1 µM [fluorescent, partial curve]",–
O=c1c(CCc2ccccc2)nc2cnc(Nc3ccccc3)nc2n1C[C@H]1CCCO1,"inconclusive: 25.1 µM [fluorescent, partial curve]",–

# From PubChem BioAssay AID889 (National Center for Advancing Translational Sciences (NCATS), 2007)
